# Assay results reported in the supplement of paper PMC10369915.
# This is one part of the list. Rule as the data show it: active = 3.2 or more and inactive = the rest. The signal is at background level for most entries.
# Target: SHP2 C-SH2 domain E139D
# Experiment: enrichment score (SH2-bound / input frequency) (ratio); bacterial display of known human phosphotyrosine sites (pTyr-Var adds point mutants) read by sequencing; higher = stronger binding; tyrosines were phosphorylated by kinases first
# Conditions: peptide library: pTyr-Var
# 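Also: displayed peptides selected on beads carrying the immobilized SH2 domain, with library peptides lacking any tyrosine serving as negative controls.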
row,Binder,enrichment score
1,FRDALYKFMVD [PHEX_Y250_YF],inactive: 1.99
2,LGGAMYFLEAE [PKHD1_Y452_YF],inactive: 1.74
3,LGGAMYYLEAE [PKHD1_Y452],inactive: 1.19
4,PSSRDYKDNIK [PIGN_Y227_H229D],inactive: 0.271
5,PSSRDYKHNIK [PIGN_Y227],inactive: 0.416
6,EESREYDRLFE [PIK3R1_Y463_K459E_YF],inactive: 0.643
7,KKLHKYNTQFQ [PIK3R1_Y452_E451K],active: 3.22
8,QEALEYFMKQV [PIK3CA_Y1038_M1043V],inactive: 1.2
9,LRSELYSLIAR [PHIP_Y16_F17S],inactive: 1.36
10,DIDKIYVRTGI [PIK3CA_Y355],inactive: 0.701
11,DKEKWYPLGTS [PIK3C2G_Y1438_N1442T],inactive: 0.887
12,KGSLPYSLILD [PKD1L2_Y406_N407S],inactive: 1.36
13,KGSLPYNLILD [PKD1L2_Y406],inactive: 0.965
14,DIDKIYIRTGI [PIK3CA_Y355_V356I],inactive: 0.766
15,TKQLTYEEQFL [PIK3C3_Y310_D314Y_YF],inactive: 0.76
16,RPGSGYTNIMR [PKLR_Y564],inactive: 0.627
17,LFLALYTGLVH [PIGB_Y402],active: 6.48
18,LGGAMYYLEAD [PKHD1_Y452_E457D],inactive: 1.32

# Target: SHP2 C-SH2 domain wild-type
# Experiment: as above
# Conditions: peptide library: pTyr-Var
row,Binder,enrichment score
1,FRDALYKFMVD [PHEX_Y250_YF],inactive: 1.96
2,LGGAMYFLEAE [PKHD1_Y452_YF],inactive: 1.33
3,LGGAMYYLEAE [PKHD1_Y452],inactive: 1.07
4,PSSRDYKDNIK [PIGN_Y227_H229D],inactive: 0.269
5,PSSRDYKHNIK [PIGN_Y227],inactive: 0.592
6,EESREYDRLFE [PIK3R1_Y463_K459E_YF],inactive: 0.753
7,KKLHKYNTQFQ [PIK3R1_Y452_E451K],inactive: 2.55
8,QEALEYFMKQV [PIK3CA_Y1038_M1043V],inactive: 1.33
9,LRSELYSLIAR [PHIP_Y16_F17S],inactive: 1.08
10,DIDKIYVRTGI [PIK3CA_Y355],inactive: 0.847
11,DKEKWYPLGTS [PIK3C2G_Y1438_N1442T],inactive: 0.745
12,KGSLPYSLILD [PKD1L2_Y406_N407S],inactive: 2.7
13,KGSLPYNLILD [PKD1L2_Y406],inactive: 1.05
14,DIDKIYIRTGI [PIK3CA_Y355_V356I],inactive: 0.791
15,TKQLTYEEQFL [PIK3C3_Y310_D314Y_YF],inactive: 0.704
16,RPGSGYTNIMR [PKLR_Y564],inactive: 0.596
17,LFLALYTGLVH [PIGB_Y402],active: 4.06
18,LGGAMYYLEAD [PKHD1_Y452_E457D],inactive: 1.27

# Target: SHP2 N-SH2 domain L43F
# Experiment: as above
# Conditions: peptide library: pTyr-Var
row,Binder,enrichment score
1,FRDALYKFMVD [PHEX_Y250_YF],inactive: 2.04
2,LGGAMYFLEAE [PKHD1_Y452_YF],inactive: 1.38
3,LGGAMYYLEAE [PKHD1_Y452],inactive: 1.32
4,PSSRDYKDNIK [PIGN_Y227_H229D],inactive: 0.455
5,PSSRDYKHNIK [PIGN_Y227],inactive: 0.768
6,EESREYDRLFE [PIK3R1_Y463_K459E_YF],inactive: 0.475
7,KKLHKYNTQFQ [PIK3R1_Y452_E451K],inactive: 2.26
8,QEALEYFMKQV [PIK3CA_Y1038_M1043V],inactive: 1.15
9,LRSELYSLIAR [PHIP_Y16_F17S],inactive: 1.23
10,DIDKIYVRTGI [PIK3CA_Y355],inactive: 0.871
11,DKEKWYPLGTS [PIK3C2G_Y1438_N1442T],inactive: 0.902
12,KGSLPYSLILD [PKD1L2_Y406_N407S],inactive: 1.37
13,KGSLPYNLILD [PKD1L2_Y406],inactive: 1.01
14,DIDKIYIRTGI [PIK3CA_Y355_V356I],inactive: 0.682
15,TKQLTYEEQFL [PIK3C3_Y310_D314Y_YF],inactive: 0.735
16,RPGSGYTNIMR [PKLR_Y564],inactive: 0.52
17,LFLALYTGLVH [PIGB_Y402],active: 4.87
18,LGGAMYYLEAD [PKHD1_Y452_E457D],inactive: 1.33

# Target: SHP2 N-SH2 domain T42A
# Experiment: as above
# Conditions: peptide library: pTyr-Var
row,Binder,enrichment score
1,FRDALYKFMVD [PHEX_Y250_YF],inactive: 1.9
2,LGGAMYFLEAE [PKHD1_Y452_YF],inactive: 1.54
3,LGGAMYYLEAE [PKHD1_Y452],inactive: 1.33
4,PSSRDYKDNIK [PIGN_Y227_H229D],inactive: 0.313
5,PSSRDYKHNIK [PIGN_Y227],inactive: 0.584
6,EESREYDRLFE [PIK3R1_Y463_K459E_YF],inactive: 0.731
7,KKLHKYNTQFQ [PIK3R1_Y452_E451K],inactive: 1.92
8,QEALEYFMKQV [PIK3CA_Y1038_M1043V],inactive: 1.28
9,LRSELYSLIAR [PHIP_Y16_F17S],inactive: 1.04
10,DIDKIYVRTGI [PIK3CA_Y355],inactive: 0.694
11,DKEKWYPLGTS [PIK3C2G_Y1438_N1442T],inactive: 0.782
12,KGSLPYSLILD [PKD1L2_Y406_N407S],inactive: 1.92
13,KGSLPYNLILD [PKD1L2_Y406],inactive: 0.85
14,DIDKIYIRTGI [PIK3CA_Y355_V356I],inactive: 0.919
15,TKQLTYEEQFL [PIK3C3_Y310_D314Y_YF],inactive: 1.02
16,RPGSGYTNIMR [PKLR_Y564],inactive: 0.556
17,LFLALYTGLVH [PIGB_Y402],active: 4.49
18,LGGAMYYLEAD [PKHD1_Y452_E457D],inactive: 1.19

# Target: SHP2 N-SH2 domain T52S
# Experiment: as above
# Conditions: peptide library: pTyr-Var
row,Binder,enrichment score
1,FRDALYKFMVD [PHEX_Y250_YF],inactive: 2.17
2,LGGAMYFLEAE [PKHD1_Y452_YF],inactive: 1.44
3,LGGAMYYLEAE [PKHD1_Y452],inactive: 1.43
4,PSSRDYKDNIK [PIGN_Y227_H229D],inactive: 0.469
5,PSSRDYKHNIK [PIGN_Y227],inactive: 0.733
6,EESREYDRLFE [PIK3R1_Y463_K459E_YF],inactive: 0.681
7,KKLHKYNTQFQ [PIK3R1_Y452_E451K],inactive: 2.45
8,QEALEYFMKQV [PIK3CA_Y1038_M1043V],inactive: 1.07
9,LRSELYSLIAR [PHIP_Y16_F17S],inactive: 1.27
10,DIDKIYVRTGI [PIK3CA_Y355],inactive: 0.877
11,DKEKWYPLGTS [PIK3C2G_Y1438_N1442T],inactive: 0.993
12,KGSLPYSLILD [PKD1L2_Y406_N407S],inactive: 1.32
13,KGSLPYNLILD [PKD1L2_Y406],inactive: 0.999
14,DIDKIYIRTGI [PIK3CA_Y355_V356I],inactive: 0.599
15,TKQLTYEEQFL [PIK3C3_Y310_D314Y_YF],inactive: 0.681
16,RPGSGYTNIMR [PKLR_Y564],inactive: 0.694
17,LFLALYTGLVH [PIGB_Y402],active: 3.77
18,LGGAMYYLEAD [PKHD1_Y452_E457D],inactive: 1.13

# Target: SHP2 N-SH2 domain wild-type
# Experiment: as above
# Conditions: peptide library: pTyr-Var
row,Binder,enrichment score
1,FRDALYKFMVD [PHEX_Y250_YF],inactive: 2.06
2,LGGAMYFLEAE [PKHD1_Y452_YF],inactive: 1.38
3,LGGAMYYLEAE [PKHD1_Y452],inactive: 1.1
4,PSSRDYKDNIK [PIGN_Y227_H229D],inactive: 0.352
5,PSSRDYKHNIK [PIGN_Y227],inactive: 0.823
6,EESREYDRLFE [PIK3R1_Y463_K459E_YF],inactive: 0.619
7,KKLHKYNTQFQ [PIK3R1_Y452_E451K],inactive: 2.41
8,QEALEYFMKQV [PIK3CA_Y1038_M1043V],inactive: 1.37
9,LRSELYSLIAR [PHIP_Y16_F17S],inactive: 0.966
10,DIDKIYVRTGI [PIK3CA_Y355],inactive: 0.863
11,DKEKWYPLGTS [PIK3C2G_Y1438_N1442T],inactive: 0.843
12,KGSLPYSLILD [PKD1L2_Y406_N407S],inactive: 1.52
13,KGSLPYNLILD [PKD1L2_Y406],inactive: 0.995
14,DIDKIYIRTGI [PIK3CA_Y355_V356I],inactive: 0.585
15,TKQLTYEEQFL [PIK3C3_Y310_D314Y_YF],inactive: 0.828
16,RPGSGYTNIMR [PKLR_Y564],inactive: 0.597
17,LFLALYTGLVH [PIGB_Y402],active: 7.64
18,LGGAMYYLEAD [PKHD1_Y452_E457D],inactive: 1.58
